Values joined by “and” are separate entries in the source; they are usually repeats but may differ in a detail not shown here. Equal entries are not always repeated. Out of some 340,000 compounds screened, fewer than 10 were called active. Inconclusive results, whose numbers are uncertain, are shown with a selection of clear calls. Calls follow the shape of the dose curve; as a rule, active = well fitted inhibition curve with a large enough effect in the main read-out, with a control signal flat (not every such curve was filed as active); inconclusive = small, poorly fitted or top-dose-only effect, or effect the other way, or a change in a side signal; inactive = no such curve, though single readings can be large or run the other way. A potency beside an inconclusive call is a rough fit, not a confirmed value. “Side channel” marks fits to a control or component signal instead of the main read-out.
target: Tumor susceptibility gene 101 protein (Homo sapiens) (UniProt Q99816); assay: qHTS Assay for Iinhibitors of HIV-1 Budding by Blocking the Interaction of PTAP/TSG101; conditions: Fluorescence polarization, FITC-PTAP peptide / Tsg101 binding; series mostly up to 115 µM
Sequence of UniProt Q99816 (Q99816 whole entry, looked up, the tested form may be a part): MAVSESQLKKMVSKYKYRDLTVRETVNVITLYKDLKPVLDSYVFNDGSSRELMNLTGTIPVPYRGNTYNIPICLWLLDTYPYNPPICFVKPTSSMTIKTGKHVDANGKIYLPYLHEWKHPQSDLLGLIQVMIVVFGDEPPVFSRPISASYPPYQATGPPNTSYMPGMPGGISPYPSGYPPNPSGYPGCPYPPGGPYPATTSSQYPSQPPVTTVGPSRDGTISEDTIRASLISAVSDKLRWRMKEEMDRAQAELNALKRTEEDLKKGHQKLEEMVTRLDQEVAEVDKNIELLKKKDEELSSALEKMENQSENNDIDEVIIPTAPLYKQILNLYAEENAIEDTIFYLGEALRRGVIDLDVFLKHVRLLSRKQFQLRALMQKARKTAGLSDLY
In short: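 Tsg101 binding domain (10 uM final) was mixed with compound and a FITC-labeled PTAP peptide (50 nM final) in HEPES pH 7.5 buffer with NaCl, Tween 20, EDTA and TCEP; fluorescence polarization was read after 20 min at r.t.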
Potency is read from the fitted curve at half-maximal effect; tags tell the direction and shape of the fitted curve or compound fluorescence and quenching.

Structure (SMILES)	Potency
O=c1c2ccccc2c(C=Nc2ccccc2O)c(O)n1-c1nccs1	inconclusive: 56.2 µM [fluorescent, side channel, partial curve, poor fit]
Cc1cc(C2C(C#N)=C(N)SC(N)=C2C#N)c(C)s1	inconclusive: 39.8 µM [fluorescent, side channel, partial curve]
COc1ccc2ccccc2c1C(O)c1nccn1C (stereo unspecified)	inconclusive: 56.2 µM [fluorescent, side channel, partial curve, poor fit]
CC(=O)Nc1ccc(N=Cc2c(O)c(C(=O)Nc3ccccc3)cc3ccccc23)cc1	inconclusive: 56.2 µM [fluorescent, side channel, partial curve, poor fit]
CN(C)c1ccc(/C=C2\C(=N)N3N=C(CC(=O)N4CCCCC4)SC3=NC2=O)cc1	inconclusive: 28.2 µM [fluorescent, side channel, full curve]
N/C(=N\OC(=O)c1ccc(Cl)c([N+](=O)[O-])c1)c1ccccn1	inactive
Nc1ccc2nc3c(=O)n(C4CCCCC4)c(=O)[nH]c3nc2c1	inconclusive: 56.2 µM [fluorescent, side channel, partial curve, poor fit]
C[C@H](O)C(=O)C1=Nc2c(nc(N)[nH]c2=O)NC1	inconclusive: 56.2 µM [fluorescent, side channel, partial curve, poor fit]
Cc1ccc(NC(=O)/C(C#N)=C(\N)C(Cl)(Cl)Cl)nc1	inconclusive: 56.2 µM [fluorescent, side channel, partial curve, poor fit]
Oc1[nH]c2ccccc2c1N=Nc1ccccc1F	inconclusive: 50.1 µM [fluorescent, side channel, partial curve, poor fit]
N#C/C(=C\c1ccc(-c2ccc(C(=O)O)cc2)o1)C(=O)Nc1ccc(F)cc1	inconclusive: 79.4 µM [fluorescent, side channel, partial curve]
CCOC(=O)CSC1=NC(=O)/C(=C/c2ccc(OC)cc2)S1	inconclusive: 22.4 µM [fluorescent, side channel, full curve, poor fit]
CC1C2C(c3ccccc3)N(C)C(=O)N(C)C2N(C)C(=O)N1C (stereo unspecified)	inconclusive: 56.2 µM [falling, partial curve, poor fit]
O=C(COC(=O)/C=C/c1cccs1)Nc1nc(-c2ccccc2)cs1	inactive
COc1ccc2c(C=Nc3c(C)n(C)n(-c4ccccc4)c3=O)c(O)n(Cc3ccco3)c(=O)c2c1	inconclusive: 44.7 µM [fluorescent, partial curve] and inconclusive: 39.8 µM [fluorescent, full curve]
CCCNC(=O)Cn1c(=O)/c(=C\c2ccc(-c3ccc([N+](=O)[O-])cc3)o2)s/c1=C\C(=O)C(C)(C)C	inconclusive: 11.2 µM [fluorescent, side channel, partial curve, poor fit]
O=C(Nc1ccc(Cl)c(Cl)c1)Nc1cc(C(=O)N2CCOCC2)ccc1N1CCCCC1	inconclusive: 112 µM [fluorescent, side channel, partial curve, poor fit]
COc1ccc(Nc2nc(C)nc3sc4c(c23)CCC4)cc1O	inactive

Structure (SMILES)	Potency
O=C1OC(C(=O)O)Cc2ccccc21 (stereo unspecified)	inactive
CCOc1ccc(/C=C/C(=O)c2cc(Br)ccc(=O)c2O)cc1	inactive
CCOC(=O)c1c(NC(=O)CC2Nc3cc(C)c(C)cc3NC2=O)sc(C)c1C (stereo unspecified)	inconclusive: 22.4 µM [fluorescent, side channel, full curve, poor fit]
Cc1cc(NC(=O)/C(C#N)=C\c2ccc(-c3ccc(SC(F)F)cc3)o2)n(-c2ccccc2)n1	inconclusive: 50.1 µM [fluorescent, side channel, partial curve, poor fit]
CCn1c(C)c(CS(=O)(=O)c2ccccc2)[nH]c1=O	inactive
CCOC(=O)c1c(C)c(C(=O)NCc2ccco2)c(C)n1Cc1ccccc1	inactive
O=C(O)COc1ccccc1/C=N/NC(=O)/C(=C\c1ccc2c(c1)OCO2)NC(=O)c1ccccc1	inconclusive: 79.4 µM [fluorescent, side channel, partial curve]
CCn1cc(C(=O)NCC(OC)OC)c(=O)c2cc(S(=O)(=O)N3CCOCC3)ccc21	inactive
O=c1oc2ccc(Cl)cc2nc1/C=C(\O)c1ccco1	inconclusive: 50.1 µM [fluorescent, side channel, partial curve, poor fit]
O=CN/N=C/c1c(O)ccc2ccccc12	inconclusive: 56.2 µM [fluorescent, side channel, partial curve, poor fit]
COc1ccc2nc(N3CCCC3)c(C#N)cc2c1	inconclusive: 50.1 µM [fluorescent, side channel, partial curve, poor fit]
O=C(NCc1cc(C(F)(F)F)ccc1Cl)c1cccc2c1C(=O)c1ccc(N3CCC(Cc4ccccc4)CC3)cc1S2(=O)=O	inconclusive: 56.2 µM [fluorescent, side channel, partial curve, poor fit]
CC(=NNC(=O)c1ccncc1)c1ccc2ccccc2c1O	inconclusive: 50.1 µM [fluorescent, side channel, partial curve, poor fit]
Cc1ccc(NC(=O)CC2Nc3ccccc3NC2=O)cc1Cl (stereo unspecified)	inactive
O=C(c1cc2cc(Cl)ccc2oc1=O)N1CCCCCCC1	inactive
COc1cc2c(cc1OC)C(C)N(C(=O)c1nccnc1C(=O)O)CC2 (stereo unspecified)	inactive
Oc1c(Br)cc(/C=N/Nc2nncc3ccccc23)cc1Br	inconclusive: 28.2 µM [fluorescent, side channel, full curve, poor fit]
N#CC1=C(N)Oc2cc(O)c(Cl)cc2C1c1ccccc1F (stereo unspecified)	inconclusive: 56.2 µM [fluorescent, side channel, partial curve, poor fit]
